PubChem BioAssay AID1345082 (National Center for Advancing Translational Sciences (NCATS), 2018)
The whole screen tested about 94,000 compounds, of which about 4,000 (4.3%) were called active. The shares of active, inactive and inconclusive entries below differ from those in the screen. Calls follow the shape of the dose curve; as a rule, active = well fitted inhibition curve with a large enough effect; inconclusive = small, poorly fitted or top-dose-only effect; inactive = no such curve, though single readings can be large or run the other way. Potencies beside an inconclusive call are fits to weak or partial responses and may not hold up.
% is scaled to controls: 0 for no effect and ±100 for the full control effect; potency is read from the fitted curve at half-maximal effect; tags tell the direction and shape of the fitted curve.

Test: Cytotoxic Profiling in NIH 3T3 Cell Line of Diverse Libraries Using Quantitative High-Throughput Screening; also: nearly all actives have a fitted effect of over 55% in size
Details: NIH 3T3 viability, CellTiter-Glo ATP luminescence, 48-72 h; activity change, negative = cytotoxicity: at 96.7 µM (top of the series) unless noted; series mostly up to 96.7 µM
Procedure, shortened: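 Mouse fibroblast NIH 3T3 cells, 400 per well, received compound via pintool and were incubated for 48 or 72 hr prior to CellTiter-Glo ATP luminescence measurement.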
In the case of `Cc1cccc(CCCNC(=O)C2CC(=O)N(Cc3cccnc3)C2)c1` (stereo unspecified), the “activity change, negative = cytotoxicity” value is reported as inactive: -0.507%.
With `Cc1ccccc1S(=O)(=O)N1CCC(n2cnnc2-c2ccccc2)CC1` the “activity change, negative = cytotoxicity” value was inactive: -17.5%.
For `O=C1COc2ccc(NCCOc3ccccc3)nc2CN1Cc1ccccc1F`, the Potency was inconclusive: 25.1 µM [inhibitor, full curve].
With `CNC(=O)[C@@H]1CN(C(=O)CCc2ccc(OC)c(OC)c2)C[C@H]1CO` the Potency was inconclusive: 56.2 µM [inhibitor, partial curve, poor fit].
With `CCc1ccc(NC(=O)Cn2c(=O)c(-c3noc(CC)n3)c3n(c2=O)CCCCC3)cc1` the “activity change, negative = cytotoxicity” value was inactive: -21.8%.
With `Cc1cc(C)c(NC(=O)Cn2c(N(C)Cc3ccccc3)nc(C)cc2=O)c(C)c1` the Potency was inconclusive: 50.1 µM [inhibitor, partial curve, poor fit].
In the case of `Cc1noc2c(NC3CCOCC3)cc(-c3cccc(C(F)(F)F)c3)nc12`, the Potency is reported as inconclusive: 56.2 µM [inhibitor, partial curve, poor fit].
In the case of `COc1ccccc1Nc1ccnc(N2CCN(C(C)=O)CC2)n1`, the “activity change, negative = cytotoxicity” value is reported as inactive: -24.5% [at 138 µM].
For `O=C(NC1CCN(C(=O)c2ccc(-c3cccs3)cc2)CC1)c1cccc(Cl)c1`, the Potency was inconclusive: 35.5 µM [inhibitor, partial curve].
With `O=C1NCCN2CC3(CCN(C(=O)NCc4ccccc4)CC3)CC12` (stereo unspecified) the “activity change, negative = cytotoxicity” value was inactive: -9.58%.
In the case of `CCN(Cc1ccccc1F)C(=O)c1cc(COc2ccccc2)[nH]n1`, the Potency is reported as inconclusive: 50.1 µM [inhibitor, partial curve, poor fit].
In the case of `O=c1n(CCN2CCC(N[S+](=O)([O-])c3cccc(C(F)(F)F)c3)C2)nc2n1CCCC2` (stereo unspecified), the “activity change, negative = cytotoxicity” value is reported as inactive: -3.03%.
With `COc1ccc(OC)c(NC(=O)c2cc3c(N4CCSCC4)nc(C)cn3n2)c1` the “activity change, negative = cytotoxicity” value was inactive: -11.1%.
For `COCCN(C)C(=O)c1coc(COc2ccc(F)cc2Cl)n1`, the Potency was inconclusive: 89.1 µM [inhibitor, single point].
In the case of `COCCN1C(=O)CS(=O)(=O)C12CCN(C(=O)c1cc(C)ccc1C)CC2`, the “activity change, negative = cytotoxicity” value is reported as inactive: -15.6%.
With `COc1ccc(-c2cc(-c3ccc4c(c3)CNC4=O)cn3cncc23)cc1` the Potency was inconclusive: 35.5 µM [inhibitor, partial curve, poor fit].
In the case of `O=C(Nc1ccccc1)O[C@@H]1CO[C@H]2[C@@H]1OC[C@@H]2NCc1ccccc1`, the Potency is reported as inconclusive: 112 µM [inhibitor, partial curve, poor fit].
In the case of `Cn1ncc2c(C(=O)N3CCC(C#N)CC3)cc(-c3ccc(Cl)cc3Cl)nc21`, the “activity change, negative = cytotoxicity” value is reported as inactive: -32.2%.
With `CC1(C)CNC(=O)c2nc(-c3ccccc3-n3cncn3)[nH]c2C1` the “activity change, negative = cytotoxicity” value was inactive: -0.307%.
With `O=C1c2c(nc(COc3ccc(F)cc3)n2Cc2ccccc2)NCCN1Cc1ccccc1` the Potency was inconclusive: 44.7 µM [inhibitor, partial curve, poor fit].
With `Cc1[nH]cnc1CN1CCNc2cc(Nc3ccccc3)ncc2C1` the Potency was inconclusive: 50.1 µM [inhibitor, partial curve, poor fit].
With `CCCN1CCCC12Cc1ccccc1CN(C(=O)CCNC(C)=O)C2` (stereo unspecified) the “activity change, negative = cytotoxicity” value was inactive: -1.9%.
For `COc1cccc(-c2cc(C3CCN(C(=O)NC4CCCC4)CC3)[nH]n2)c1`, the “activity change, negative = cytotoxicity” value was inactive: -16.3%.
With `O=C1NCc2ccccc2CC12CCCN2Cc1ccc(Cl)s1` (stereo unspecified) the Potency was inconclusive: 50.1 µM [inhibitor, partial curve, poor fit].
With `COc1cc(Cl)c(C)cc1NC(=O)Cn1c(C)cc2nc3n(c(=O)c21)CCCCC3` the “activity change, negative = cytotoxicity” value was inactive: -19.7%.
For `CCCCCCN(CCC(=O)NCCc1ccccc1)C(=O)c1cc(C)oc1C`, the Potency was inconclusive: 15.8 µM [inhibitor, full curve, poor fit].
For `COc1ccc(NC(=O)N2CCC(CCc3nc(C4CCOCC4)no3)CC2)cc1F`, the Potency was inconclusive: 56.2 µM [inhibitor, partial curve, poor fit].
With `CCOC(=O)C1=C(C)N=C2SC=C(CC(=O)N3CCCC3)N2C1c1cccc(C)c1` (stereo unspecified) the Potency was inconclusive: 50.1 µM [inhibitor, partial curve, poor fit].
With `COc1ccccc1Cn1c(=O)c(C(=O)N2CCC(Cc3ccccc3)CC2)nc2cccnc21` the Potency was inconclusive: 56.2 µM [inhibitor, partial curve, poor fit].
In the case of `O=C(Nc1cc(-c2ccccn2)nn1-c1ccccc1)c1ccc(Cl)nc1`, the Potency is reported as inconclusive: 50.1 µM [inhibitor, partial curve, poor fit].
For `Cc1ccc([C@@H]2CN(C(=O)c3nc(C)oc3C)C[C@H]2NC(=O)C2CC2)cc1`, the Potency was inconclusive: 56.2 µM [inhibitor, partial curve, poor fit].
For `CN1CCC2(C1)CN(CC1CCOCC1)c1ccc(C(=O)NCCc3ccccc3)cc12` (stereo unspecified), the Potency was inconclusive: 89.1 µM [inhibitor, partial curve, poor fit].
In the case of `CC(C)Cn1c(=O)c(C(=O)NCc2ccccc2Cl)nc2cccnc21`, the Potency is reported as inconclusive: 50.1 µM [inhibitor, partial curve, poor fit].
With `CN1CCN(C(=O)c2cc(-c3cc(Cl)cc(Cl)c3)c3nncn3n2)CC1` the “activity change, negative = cytotoxicity” value was inactive: -25.9% [at 138 µM].
With `COc1ccc(CNC(=O)c2nc3nc(-c4ccccc4)c(Cl)cc3n2C)cc1OC` the Potency was inconclusive: 44.7 µM [inhibitor, full curve, poor fit].
For `CCOCc1nc(C2CCCN(C(=O)c3cccc(C)c3)C2)no1` (stereo unspecified), the “activity change, negative = cytotoxicity” value was inactive: -7.62%.
With `O=C(NCc1cccc(C(F)(F)F)c1)C1CN(c2cccc(Cl)c2)C(=O)N1` (stereo unspecified) the Potency was inconclusive: 39.8 µM [inhibitor, partial curve].
For `COc1ccccc1-c1ccc(C(=O)N2CCC(NC(=O)c3cccc(Cl)c3)CC2)cc1`, the Potency was inconclusive: 50.1 µM [inhibitor, partial curve, poor fit].
In the case of `CC1=C[C@@H](CN2CCN(C)CC2)[C@H](C(C)C)C[C@H]1Cc1nnc(-c2ccc(C)cc2)o1`, the Potency is reported as active: 22.4 µM.
For `COCCN1CCCCCC(O)c2cc(C(=O)NCCc3c[nH]c4ccccc34)ccc21` (stereo unspecified), the Potency was inconclusive: 50.1 µM [inhibitor, partial curve, poor fit].
For `CCC(C)NC(=O)N1CC(Oc2ccc(-c3nc(-c4ccccc4)no3)cc2)C1` (stereo unspecified), the Potency was inconclusive: 3.16 µM [inhibitor, full curve, poor fit].
With `CN1CCN(c2ncnc3sc4c(c23)CCN(Cc2ccco2)C4)CC1` the “activity change, negative = cytotoxicity” value was inactive: -4.91%.
For `CC(C(=O)N1CCN(c2cc(-c3ccccc3)[nH]n2)CC1)c1ccccc1` (stereo unspecified), the Potency was inconclusive: 44.7 µM [inhibitor, partial curve, poor fit].
For `Cn1cccc1CN1CCC2(CC1)CN(Cc1ccccc1)CC2CO` (stereo unspecified), the Potency was inconclusive: 50.1 µM [inhibitor, partial curve, poor fit].
In the case of `CCc1nc2c(c(-c3ccc(Cl)cc3)n1)CN(C(=O)c1ccccc1)CC2`, the Potency is reported as inconclusive: 12.6 µM [inhibitor, full curve, poor fit].
In the case of `CC1(COCC2CC2)COc2ccc(C(=O)N3CCOCC3c3cccc(F)c3)cc2N1` (stereo unspecified), the Potency is reported as inconclusive: 100 µM [inhibitor, partial curve].
For `CNC(=O)c1cc(-c2cnn(C)c2)cc2c1OCCN2Cc1cccnc1`, the Potency was active: 39.8 µM.
In the case of `O=C1CCCCC(C(=O)NCc2ccc(F)cc2)N1` (stereo unspecified), the “activity change, negative = cytotoxicity” value is reported as inactive: 4.59%.
In the case of `COc1ccc(CC(=O)NC2CCN(c3nccc(Nc4ccccc4OC)n3)CC2)cc1`, the Potency is reported as inconclusive: 20 µM [inhibitor, full curve].
For `COc1cccc(NC(=O)NC[C@@H]2C=C(C)[C@H](CC(=O)N3CCN(c4ccccn4)CC3)C[C@H]2C(C)C)c1`, the Potency was inconclusive: 44.7 µM [inhibitor, partial curve].
In the case of `Cc1ccc(CN(C)C(=O)CC(c2ccccc2)c2ccc3c(c2)OCO3)o1` (stereo unspecified), the Potency is reported as inconclusive: 63.1 µM [inhibitor, partial curve, poor fit].
For `COc1ccccc1-c1ccc(CN2CCCCC2C(=O)NC(C)C)cc1` (stereo unspecified), the Potency was inconclusive: 70.8 µM [inhibitor, single point].
With `CCOc1ccc(S(=O)(=O)N2CCCN(C)c3ccccc32)cc1` the Potency was inconclusive: 6.31 µM [inhibitor, full curve, poor fit].
With `CCOC(=O)c1ccccc1NC(=O)CN1C(=O)NC(c2ccc(Cl)cc2)C2=C1COC2=O` (stereo unspecified) the Potency was active: 39.8 µM.
For `CCN(CC)c1cc(CCC(=O)N2CCN(c3cccc(OC)c3)CC2)ccn1`, the Potency was inconclusive: 39.8 µM [inhibitor, partial curve, poor fit].
With `CN1C(=O)CCC2(CNC(=O)NC3CCCC3)CCC=C12` (stereo unspecified) the “activity change, negative = cytotoxicity” value was inactive: 0.125%.
In the case of `CNc1nccc(N2CCC(CC(=O)NCc3cc(OC)cc(OC)c3)CC2)n1`, the Potency is reported as inconclusive: 50.1 µM [inhibitor, partial curve, poor fit].
With `COc1ccc(CN2C[C@@H](F)[C@@H](OCc3nc4ccc(C(F)(F)F)cc4[nH]3)C2)cn1` the Potency was inconclusive: 20 µM [inhibitor, full curve].
In the case of `Cc1cc(CN(C)C2CCCc3ccccc32)no1` (stereo unspecified), the “activity change, negative = cytotoxicity” value is reported as inactive: -24.4% [at 138 µM].
With `C=CCNC(=O)[C@@H]1Cc2cn(Cc3nccn3C)c3cccc(c23)[C@H](CC(C)C)N1` the Potency was active: 79.4 µM.
In the case of `O=C(NC1CCC(O)CC1)c1ccc(-c2ncc3cnc(-c4cccc(F)c4)cn23)cc1` (stereo unspecified), the “activity change, negative = cytotoxicity” value is reported as inactive: -25.8% [at 138 µM].
For `C[S+](=O)([O-])N1CCC2(CCN(Cc3cccs3)c3ccccc3O2)CC1`, the “activity change, negative = cytotoxicity” value was inactive: -17%.
In the case of `COCCNC(=O)Cc1ccc(N(Cc2ccc(C)cc2)C(=O)c2ccco2)cc1`, the Potency is reported as inconclusive: 56.2 µM [inhibitor, partial curve, poor fit].
For `Cc1ccc(-c2noc(-c3nc(C4CC4)no3)n2)cc1`, the “activity change, negative = cytotoxicity” value was inactive: 3.23%.
In the case of `COc1ccccc1-c1cccc(C(=O)N2CCC[C@H]2C(=O)NCC2CC2)c1`, the “activity change, negative = cytotoxicity” value is reported as inactive: -19.3% [at 138 µM].
For `Cc1ccc(C(=O)N2CCC3(CCC(=O)N(CC4CC4)CC3)CC2)cc1F`, the Potency was inconclusive: 44.7 µM [inhibitor, partial curve, poor fit].
